Reference: a collection of fitness landscapes (doi:10.1126/science.1257360)
The list shows a part of the results.

B1: PhoQ; a variant is named by its letters at X, in order, P23837 (parent)
chain: MKKLLRLFFPLSLRVRFLLATAAVVLVLSLAYGMVALIGYSVSFDKTTFRLLRGESNLFYTLAKWENNKLHVELPENIDKQSPTMTLIYDENGQLLWAQRDVPWLMKMIQPDWLKSNGFHEIEADVNDTSLLLSGDHSIQQQLQEVREDDDDAEMTHSVAVNVYPATSRMPKLTIVVVDTIPVELKSSYMVWSWFIYVLSANLLLVIPLLWVAAWWSLRPIEALAKEVRELEEHNRELLNPATTRELTSLVRNLNRLLKSERERYDKYRTTLTDLTHSLKTPLXXLQXXLRSLRSEKMSVSDAEPVMLEQISRISQQIGYYLHRASMRGGTLLSRELHPVAPLLDNLTSALNKVYQRKGVNISLDISPEISFVGEQNDFVEVMGNVLDNACKYCLEFVEISARQTDEHLYIVVEDDGPGIPLSKREVIFDRGQRVDTLRPGQGVGLAVAREITEQYEGKIVAGESMLGGARMEVIFGRQHSAPKDE

Variants of: B1
Test: enrichment ratio after two sorts for PhoP signalling (ratio (wild type AVST 3.29)); higher = more functional
Settings: with PhoP (E. coli)
In the case of ANPW, the enrichment ratio is reported as ≤ 0.25.
In the case of ARII, the enrichment ratio is reported as ≤ 0.25.
YTKI was tested, and the enrichment ratio was ≤ 0.25.
In the case of EMRV, the enrichment ratio is reported as ≤ 0.25.
In the case of MEMY, the enrichment ratio is reported as 4.03.
With WYWL the enrichment ratio was ≤ 0.25.
For DFEI, the enrichment ratio was ≤ 0.25.
For YAQF, the enrichment ratio was ≤ 0.25.
In the case of IDCF, the enrichment ratio is reported as ≤ 0.25.
For LGCI, the enrichment ratio was ≤ 0.25.
In the case of MDIF, the enrichment ratio is reported as ≤ 0.25.
In the case of NKYS, the enrichment ratio is reported as ≤ 0.25.
GWVK was tested, and the enrichment ratio was ≤ 0.25.
GRYM was tested, and the enrichment ratio was ≤ 0.25.
RSEA was tested, and the enrichment ratio was ≤ 0.25.
For FRGY, the enrichment ratio was ≤ 0.25.
MMMS was tested, and the enrichment ratio was ≤ 0.25.
In the case of RQCY, the enrichment ratio is reported as ≤ 0.25.
For EEST, the enrichment ratio was ≤ 0.25.
With ANTC the enrichment ratio was 63.
MTEW was tested, and the enrichment ratio was ≤ 0.25.
FRRS was tested, and the enrichment ratio was ≤ 0.25.
For MDQQ, the enrichment ratio was ≤ 0.25.
In the case of FWTI, the enrichment ratio is reported as ≤ 0.25.
With LLLV the enrichment ratio was ≤ 0.25.
Variant SIGW has an enrichment ratio of 11.7.
In the case of EVCN, the enrichment ratio is reported as ≤ 0.25.
With SCLQ the enrichment ratio was 10.8.
In the case of QMFR, the enrichment ratio is reported as ≤ 0.25.
FWPQ was tested, and the enrichment ratio was ≤ 0.25.
In the case of DTRM, the enrichment ratio is reported as ≤ 0.25.
IVAY was tested, and the enrichment ratio was ≤ 0.25.
In the case of ATQA, the enrichment ratio is reported as ≤ 0.25.
In the case of QALT, the enrichment ratio is reported as 2.21.
For PHVR, the enrichment ratio was ≤ 0.25.
With HIMS the enrichment ratio was ≤ 0.25.
With QHKH the enrichment ratio was ≤ 0.25.
With KSNF the enrichment ratio was ≤ 0.25.
QYYW was tested, and the enrichment ratio was ≤ 0.25.
With SWED the enrichment ratio was ≤ 0.25.
TEQN gave an enrichment ratio of 34.8.
In the case of MGSA, the enrichment ratio is reported as ≤ 0.25.
SVWP was tested, and the enrichment ratio was ≤ 0.25.
ICWL was tested, and the enrichment ratio was ≤ 0.25.
With SMPQ the enrichment ratio was ≤ 0.25.
For YEVP, the enrichment ratio was ≤ 0.25.
With LVLG the enrichment ratio was ≤ 0.25.
In the case of WGTF, the enrichment ratio is reported as ≤ 0.25.
KLDY was tested, and the enrichment ratio was ≤ 0.25.
With NFAP the enrichment ratio was ≤ 0.25.
For KCVY, the enrichment ratio was ≤ 0.25.
PFKY was tested, and the enrichment ratio was ≤ 0.25.
LATW was tested, and the enrichment ratio was ≤ 0.25.
In the case of RPLV, the enrichment ratio is reported as ≤ 0.25.
NHYN was tested, and the enrichment ratio was ≤ 0.25.
In the case of ADYS, the enrichment ratio is reported as ≤ 0.25.
With VSAT the enrichment ratio was ≤ 0.25.
In the case of NDDP, the enrichment ratio is reported as ≤ 0.25.
LVQA was tested, and the enrichment ratio was ≤ 0.25.
In the case of RGST, the enrichment ratio is reported as ≤ 0.25.
With WDIS the enrichment ratio was ≤ 0.25.
In the case of MNHV, the enrichment ratio is reported as ≤ 0.25.
With NSWD the enrichment ratio was ≤ 0.25.
PVKY was tested, and the enrichment ratio was ≤ 0.25.
In the case of DAGF, the enrichment ratio is reported as ≤ 0.25.
With RAMS the enrichment ratio was ≤ 0.25.
For DCGT, the enrichment ratio was ≤ 0.25.
For DINN, the enrichment ratio was ≤ 0.25.
For EAGS, the enrichment ratio was ≤ 0.25.
In the case of FTDA, the enrichment ratio is reported as ≤ 0.25.
In the case of KDAQ, the enrichment ratio is reported as ≤ 0.25.
With HRWI the enrichment ratio was ≤ 0.25.
With QNHT the enrichment ratio was ≤ 0.25.
With TTDD the enrichment ratio was ≤ 0.25.
For ECTR, the enrichment ratio was ≤ 0.25.
In the case of GQAQ, the enrichment ratio is reported as ≤ 0.25.
For QDDR, the enrichment ratio was ≤ 0.25.
RLAI was tested, and the enrichment ratio was ≤ 0.25.
With INCG the enrichment ratio was ≤ 0.25.
With PQHC the enrichment ratio was ≤ 0.25.
For SYYD, the enrichment ratio was ≤ 0.25.
For TCFS, the enrichment ratio was ≤ 0.25.
PRRQ was tested, and the enrichment ratio was ≤ 0.25.
For EMHF, the enrichment ratio was ≤ 0.25.
